# Laboratory results: the supplement of paper PMC8728848
# The list shows a part of the results.
# B1: NKp30 (Homo sapiens), O14931 (protein)
# chain: MAWMLLLILIMVHPGSCALWVSQPPEIRTLEGSSAFLPCSFNASQGRLAIGSVTWFRDEVVPGKEVRNGTPERFGRLAPLASSRFLHDHQAELHIRDVRGHDASIYVCRVEVLGLGVGTGNGTRLVVRKEHPQLGAGTHADPEAPEAEGAPSVFLFPPKPKDTLMISRTPEVTCVVVDVSHEDPEVKFNWYVDGVEVHNAKTPREEQYNSTYRVVSVLTVLHQDWLNGKEYKCKVSNKALPAPIEKTISKAKGQPREPQVYTLPPSRDELTKNQVSLTCLVKGFYPSDIAVEWESNGQPENNYKTTPPVLDSDGSFFLYSKLTVDKSRWQQGNVFSCSVMHEALHNHYTQKSLSLSPGK
# How the values were obtained:
# Test in all cases: glycan array binding signal (z-score within array); higher = stronger binding
# Conditions in all cases: glycan notation: IUPAC condensed, linker removed
# [1] = biological target: Gal(b1-4)GlcNAc(b1-6)GalNAc
# In short: (§1)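 The Consortium for Functional Glycomics database supplied 3228 glycan arrays, of which those lacking an available protein sequence were dropped. The binding signal, a within-array Z-score, was averaged across arrays of the same protein sequence and across linkers. Negative scores can be read as non-binding.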
# [2] = biological target: Gal(b1-4)GlcNAc(b1-6)[Gal(b1-3)]GalNAc
# In short: as §1
# Gal3S(b1-3)GalNAc = biological target: Gal3S(b1-3)GalNAc
# In short: as §1
# Gal3S(b1-3)GlcNAc = biological target: Gal3S(b1-3)GlcNAc
# In short: as §1
# [3] = biological target: Gal3S(b1-3)[Fuc(a1-4)]GlcNAc
# In short: as §1
# Gal3S(b1-4)Glc = biological target: Gal3S(b1-4)Glc
# In short: as §1
# Gal3S(b1-4)Glc6S = biological target: Gal3S(b1-4)Glc6S
# In short: as §1
# Gal3S(b1-4)GlcNAc = biological target: Gal3S(b1-4)GlcNAc
# In short: as §1
# Gal3S(b1-4)GlcNAc6S = biological target: Gal3S(b1-4)GlcNAc6S
# In short: as §1
# [4] = biological target: Gal3S(b1-4)[Fuc(a1-3)]Glc
# In short: as §1
# Gal3S4S(b1-4)GlcNAc = biological target: Gal3S4S(b1-4)GlcNAc
# In short: as §1
# Gal3S6S(b1-4)GlcNAc = biological target: Gal3S6S(b1-4)GlcNAc
# In short: as §1
# Gal3S6S(b1-4)GlcNAc6S = biological target: Gal3S6S(b1-4)GlcNAc6S
# In short: as §1
# Gal4S(b1-4)GlcNAc = biological target: Gal4S(b1-4)GlcNAc
# In short: as §1
# Gal4S6S(b1-4)GlcNAc = biological target: Gal4S6S(b1-4)GlcNAc
# In short: as §1
# Gal6S(b1-4)Glc = biological target: Gal6S(b1-4)Glc
# In short: as §1
# Gal6S(b1-4)Glc6S = biological target: Gal6S(b1-4)Glc6S
# In short: as §1
# Gal6S(b1-4)GlcNAc = biological target: Gal6S(b1-4)GlcNAc
# In short: as §1
# Gal6S(b1-4)GlcNAc6S = biological target: Gal6S(b1-4)GlcNAc6S
# In short: as §1
# GalNAc(a1-3)Gal = biological target: GalNAc(a1-3)Gal
# In short: as §1
# GalNAc(a1-3)GalNAc = biological target: GalNAc(a1-3)GalNAc
# In short: as §1
# GalNAc(b1-3)Gal = biological target: GalNAc(b1-3)Gal
# In short: as §1
# [5] = biological target: GalNAc(b1-3)Gal(a1-4)Gal(b1-4)GlcNAc
# In short: as §1
# GalNAc(b1-3)GalNAc = biological target: GalNAc(b1-3)GalNAc
# In short: as §1
# GalNAc(b1-4)GlcNAc = biological target: GalNAc(b1-4)GlcNAc
# In short: as §1
# Glc(a1-4)Glc = biological target: Glc(a1-4)Glc
# In short: as §1
# Glc(a1-6)Glc(a1-6)Glc = biological target: Glc(a1-6)Glc(a1-6)Glc
# In short: as §1
# Glc(b1-4)Glc = biological target: Glc(b1-4)Glc
# In short: as §1
# Glc(b1-6)Glc = biological target: Glc(b1-6)Glc
# In short: as §1
# GlcA(b1-3)Gal = biological target: GlcA(b1-3)Gal
# In short: as §1
# GlcA(b1-3)GlcNAc = biological target: GlcA(b1-3)GlcNAc
# In short: as §1
# GlcA(b1-6)Gal = biological target: GlcA(b1-6)Gal
# In short: as §1
# [6] = biological target: GlcNAc(a1-3)Gal(b1-4)GlcNAc
# In short: as §1
# [7] = biological target: GlcNAc(a1-6)Gal(b1-4)GlcNAc
# In short: as §1
# [8] = biological target: GlcNAc(b1-2)Gal(b1-3)GalNAc
# In short: as §1
# [9] = biological target: GlcNAc(b1-2)Man(a1-3)[GlcNAc(b1-2)Man(a1-6)]Man(b1-4)GlcNAc(b1-4)GlcNAc
# In short: as §1
# GlcNAc(b1-3)Gal = biological target: GlcNAc(b1-3)Gal
# In short: as §1
# [10] = biological target: GlcNAc(b1-3)Gal(b1-3)GalNAc
# In short: as §1
binder,measurement,setting,value
B1,glycan array binding signal (z-score),[1],-0.288
same,glycan array binding signal (z-score),[2],-0.407
same,glycan array binding signal (z-score),Gal3S(b1-3)GalNAc,-0.265
same,glycan array binding signal (z-score),Gal3S(b1-3)GlcNAc,0.088
same,glycan array binding signal (z-score),[3],-0.27
same,glycan array binding signal (z-score),Gal3S(b1-4)Glc,-0.02
same,glycan array binding signal (z-score),Gal3S(b1-4)Glc6S,-0.309
same,glycan array binding signal (z-score),Gal3S(b1-4)GlcNAc,-0.144
same,glycan array binding signal (z-score),Gal3S(b1-4)GlcNAc6S,-0.253
same,glycan array binding signal (z-score),[4],-0.006
same,glycan array binding signal (z-score),Gal3S4S(b1-4)GlcNAc,0.435
same,glycan array binding signal (z-score),Gal3S6S(b1-4)GlcNAc,-0.162
same,glycan array binding signal (z-score),Gal3S6S(b1-4)GlcNAc6S,0.66
same,glycan array binding signal (z-score),Gal4S(b1-4)GlcNAc,1.43
same,glycan array binding signal (z-score),Gal4S6S(b1-4)GlcNAc,-0.138
same,glycan array binding signal (z-score),Gal6S(b1-4)Glc,0.789
same,glycan array binding signal (z-score),Gal6S(b1-4)Glc6S,0.09
same,glycan array binding signal (z-score),Gal6S(b1-4)GlcNAc,1.31
same,glycan array binding signal (z-score),Gal6S(b1-4)GlcNAc6S,0.261
same,glycan array binding signal (z-score),GalNAc(a1-3)Gal,0.266
same,glycan array binding signal (z-score),GalNAc(a1-3)GalNAc,0.254
same,glycan array binding signal (z-score),GalNAc(b1-3)Gal,0.357
same,glycan array binding signal (z-score),[5],0.274
same,glycan array binding signal (z-score),GalNAc(b1-3)GalNAc,1.68
same,glycan array binding signal (z-score),GalNAc(b1-4)GlcNAc,-0.089
same,glycan array binding signal (z-score),Glc(a1-4)Glc,0.053
same,glycan array binding signal (z-score),Glc(a1-6)Glc(a1-6)Glc,0.055
same,glycan array binding signal (z-score),Glc(b1-4)Glc,-0.299
same,glycan array binding signal (z-score),Glc(b1-6)Glc,-0.037
same,glycan array binding signal (z-score),GlcA(b1-3)Gal,-0.57
same,glycan array binding signal (z-score),GlcA(b1-3)GlcNAc,0.258
same,glycan array binding signal (z-score),GlcA(b1-6)Gal,-0.054
same,glycan array binding signal (z-score),[6],0.868
same,glycan array binding signal (z-score),[7],-0.367
same,glycan array binding signal (z-score),[8],0.539
same,glycan array binding signal (z-score),[9],0.042
same,glycan array binding signal (z-score),GlcNAc(b1-3)Gal,-0.224
same,glycan array binding signal (z-score),[10],-0.628
